± gives the standard deviation. The full ranking holds about 5,500 sequences; the median of “pre-steady-state target cleavage rate” is about 0.1, and the highest 2% start at about 0.64. The list shows a part of the results, in another mix than the full data. Some results are limits rather than exact numbers.

The results in this text go back to the supplement of paper PMC10338343.

In the test the test system is MIWI (PIWIL1) piRISC loaded with piRNA #2 (30 nt). Put plainly: pre-steady-state target cleavage rate (min^-1); MIWI and MILI are mouse PIWI proteins and EfPiwi is from a freshwater sponge; tags in brackets are library labels; higher = faster piRNA-guided slicing of the target. To be noted: guide: piRNA #2 5'p-UUAGGUAACCCAGUAGAUCCAGAGGAAUUC; auxiliary factor: 500 nM mouse GTSF1. Summed up:
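Sequencing of uncleaved targets, normalised to depth and to weakly complementary targets, was the readout of this Cleave-'n-Seq assay. A transcribed, DNA-blocked target RNA library (0.1 nM) was mixed with 1 nM active affinity-purified piRISC carrying one synthetic guide, with or without 500 nM GTSF1 partner protein, in HEPES–potassium acetate buffer at 33 °C for 0–8 or 0–960 min. Three trials were pooled, k3 was capped at 0.0001 min^-1, and a burst-and-steady-state fit gave the pre-steady-state cleavage rate.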
CUAUUCCUCUGGAUCUACUAGGUUACCUAA: the “pre-steady-state target cleavage rate” value came to 0.238 ± 0.046. GAAUUCGUCUGGAUCUACUGGGUAACCUAA: the “pre-steady-state target cleavage rate” value came to 0.142 ± 0.034.

As for CUUUUCCUCACGAUCUACUGGGUUACCUAA, the “pre-steady-state target cleavage rate” value is 0.635 ± 0.051. CUUAAGGUCUGGAUCUAGUGGGUAACCUAA: the “pre-steady-state target cleavage rate” value turned out to be 0.0188 ± 0.0089. In the case of CUUAAGGAGAGGUUCUACUGGGUUUCCUAA it was 0.00421 ± 0.0042; in that of CUUAAGGAGAGGAUCUACUGGGUUACCUUA, 0.00956 ± 0.0048. Take CUAUUCCUCAGGAUCUAGUGGGUUACCUAA: the “pre-steady-state target cleavage rate” value amounted to 0.194 ± 0.032.

Turning to GUAUUCCACUGGAUCUACUGGGUUACCUAA, the “pre-steady-state target cleavage rate” value was 0.0571 ± 0.028. Take CUUAUCCUCUGCAUCUACUGGGUUACGUAA: the “pre-steady-state target cleavage rate” value came out at 0.181 ± 0.029. As for GAAUUCCUCUGGAUCUACUGGGUUACCGAA, the “pre-steady-state target cleavage rate” value was found to be 0.361 ± 0.091.

As for CUUUACCUCUGGAUCUACUGCGUUACCUAA, the “pre-steady-state target cleavage rate” value worked out at 0.452 ± 0.045.

Consider GAAUUCCUGUGGAUCUACUGGGUUAGCUAA, for which the “pre-steady-state target cleavage rate” value is 0.272 ± 0.043.

For the sequence CUUAUCCUCUGGAUGUACUGGGUUACCUUA, the “pre-steady-state target cleavage rate” value was 0.355 ± 0.046. As for CUUUUCCUCUGGAUCUACUGGGUUACCAAA, the “pre-steady-state target cleavage rate” value is 0.477 ± 0.052. Consider CUUAAGGUCUGGAUCUACUGGGUCACCUAA, for which the “pre-steady-state target cleavage rate” value came to 0.122 ± 0.017.

On to CUUAAGGUCUGCAUCUACAGGGUUACCUAA, for which the “pre-steady-state target cleavage rate” value is 0.0962 ± 0.013. Regarding GAAAUCCUCUGGAUCUACUGCGUUACCUAA, the “pre-steady-state target cleavage rate” value was determined as 0.45 ± 0.059.

In the case of CAAUUCCCCUGGAUCUACUGGGUUACCUAA, the “pre-steady-state target cleavage rate” value was determined as 0.462 ± 0.03. Consider CUUAAGGAGUGCAUCUACAGGGUUACCUAA, for which the “pre-steady-state target cleavage rate” value was determined as 0.00328 ± 0.003. For the sequence CUUAACCUGUGGAUCUAGUGGGUUACCUAA, the “pre-steady-state target cleavage rate” value was determined as 0.156 ± 0.014. With CAAUUCCUCUGGAUCUACAGGGAUACCUAA the figure was 0.201 ± 0.029; with CAAUUCCCUCUGGAUCUACUGGGUUACCUAA, 0.435 ± 0.054; with CAAUUCCUCUGGAUCUACUGGGUUACCCAA, 0.46 ± 0.15. For CUUUUCGAGUGGAUCUACUGGGUUACCUAA, the “pre-steady-state target cleavage rate” value came to 0.317 ± 0.038.

CUUAACCUCUGGAUCAACUGGCUUACCUAA: the “pre-steady-state target cleavage rate” value is 0.0451 ± 0.0095. In the case of CUAUUCCUCUGGAUCUACUGGGUAACCUUA, the “pre-steady-state target cleavage rate” value came to 0.178 ± 0.044.

Turning to CUUUACCUCUGGAUCUACUGGGUUACCAAA, the “pre-steady-state target cleavage rate” value is 0.312 ± 0.041. In the case of CUAUUCCACUGGAUCUACUCGGUUACCUAA it was 0.0817 ± 0.018; in that of GAAUUCCUCUUGAUCUACUGGGUUACCUAA, 0.74 ± 0.037. As to CUUAAGGACUGGAUCUACUGGGUUACCUCAA, the “pre-steady-state target cleavage rate” value amounted to 0.0868 ± 0.041. CUUAACCUCUGGAUCUACUGGCUAACCUAA: the “pre-steady-state target cleavage rate” value was 0.0121 ± 0.0044. As for CUUAAGCUGUGGAUCUUCUGGGUUACCUAA, the “pre-steady-state target cleavage rate” value was 0.0804 ± 0.03. Turning to CUUAAGCACUGGAUCUACUGGGUUAGCUAA, the “pre-steady-state target cleavage rate” value amounted to 0.0543 ± 0.008.

On to CUUAAGGAGACCUACUACUGCGUUACCUAA, for which the “pre-steady-state target cleavage rate” value came to 0.0036 ± 0.0015.

GAAUUGCUCUGGAUCUACUGGGUUACCUUA: the “pre-steady-state target cleavage rate” value amounted to 0.0635 ± 0.026.

For the sequence CUAUUGCUCUGGAUCUACUGGGUUACCUUA, the “pre-steady-state target cleavage rate” value was 0.124 ± 0.028. Consider CUUAACCUCUGGAUCUACUGGGUUACCUGA, for which the “pre-steady-state target cleavage rate” value worked out at 0.0864 ± 0.026. Regarding CUUAACGAGUGGAUCUACUGGGUUACCUAA, the “pre-steady-state target cleavage rate” value was found to be 0.22 ± 0.03. Regarding “CUUAAGGAGACCUAGUACUGGGUUACGAUA [g5:g15:cont:t1A]”, the “pre-steady-state target cleavage rate” value was less than 0.0001.

Take GAAUUGCUCUGGAUCUACUGGGUUACCAAA: the “pre-steady-state target cleavage rate” value amounted to 0.141 ± 0.037.

CUUAAGGUCUGGAUCUACUGGGUUUCCUAA: the “pre-steady-state target cleavage rate” value turned out to be 0.176 ± 0.024.

Consider CUUAAGGUCUGGAUCUACUGGGCUUACCUAA, for which the “pre-steady-state target cleavage rate” value came to 0.013 ± 0.011. In the case of CUUAAGGAGACCAUCUACUGCGAUACCUAA, the “pre-steady-state target cleavage rate” value was determined as 0.0042 ± 0.0015. In the case of GAAUUCGUCUGGAUCUACAGGGUUACCUAA, the “pre-steady-state target cleavage rate” value stood at 0.179 ± 0.03. With CUUAAGGUCUGGAUCUACUGGGUUACCAAA, the “pre-steady-state target cleavage rate” value amounted to 0.223 ± 0.034. On to GAAUUCCUCUGGAUCUUCAGGGUUACCUAA, for which the “pre-steady-state target cleavage rate” value was 0.11 ± 0.016. With CUUUUCAUCUGGAUCUACUGGGUUACCUAA the figure was 0.471 ± 0.036. For the sequence CAAUUCCUGUGGAUGUACUGGGUUACCUAA, the “pre-steady-state target cleavage rate” value came out at 0.512 ± 0.052. Regarding CUUUUCCUCUGGAUCUACUGGGUUACCGUAA, the “pre-steady-state target cleavage rate” value is 0.35 ± 0.05. For CUUUUACCUCUGGAUCUACUGGGUUACCUAA, the “pre-steady-state target cleavage rate” value is 0.206 ± 0.032. With GAAUUCCACUGGAUCUACUGGGUUACCUAA, the “pre-steady-state target cleavage rate” value was 0.56 ± 0.05. Consider CAAUUCCUCUGGAUCAACUGGCUUACCUAA, for which the “pre-steady-state target cleavage rate” value is 0.0707 ± 0.018. Turning to CUUAAGCUCUGGAUCUACUGGGUAUCCUAA, the “pre-steady-state target cleavage rate” value was 0.0379 ± 0.013. Take CUUUUCCCCUGGAUCUACUGGGUUACCUAA: the “pre-steady-state target cleavage rate” value came to 0.47 ± 0.03.

With CUUUUCCUCUGGAUCCACUGGGUUACCUAA, the “pre-steady-state target cleavage rate” value turned out to be 0.23 ± 0.031. On to CUUAUCCUCUCGAUCUACUCGGUUACCUAA, for which the “pre-steady-state target cleavage rate” value stood at 0.16 ± 0.011.

As for GAUUUCCUCUGGAUCUACUGGGUUAGCUAA, the “pre-steady-state target cleavage rate” value was found to be 0.439 ± 0.058. Take GAAUUCCUCUGGAUCUACAGGCUUACCUAA: the “pre-steady-state target cleavage rate” value is 0.0414 ± 0.009.

As for CAAUUCCUCUGGAUCUACUGGGUUAACUAA, the “pre-steady-state target cleavage rate” value is 0.386 ± 0.098.

Turning to CUUAUCCACAGGAUCUACUGGGUUACCUAA, the “pre-steady-state target cleavage rate” value is 0.299 ± 0.047.

On to CUUUUCCUCUGGAUCUACUGGGUUGACCUAA, for which the “pre-steady-state target cleavage rate” value was 0.381 ± 0.035.

Regarding CUUAAGCUCUGGAUCUACUGGGUUAUCCUAA, the “pre-steady-state target cleavage rate” value is 0.0842 ± 0.014. For GAUUUCGUCUGGAUCUACUGGGUUACCUAA, the “pre-steady-state target cleavage rate” value was 0.369 ± 0.058. With CUAUUCCUGUGGAUCUACUGGGAUACCUAA the figure was 0.251 ± 0.024; with CUUUUCCUGUGGAUCUUCUGGGUUACCUAA, 0.276 ± 0.051; with CAAUUCCUCUGGAUCUACUCCGUUACCUAA, 0.0223 ± 0.0077. In the case of CUUAUCGUCUGGAACUACUGGGUUACCUAA it was 0.417 ± 0.046; in that of CUUUUCCACUGGAUCUACUGGGUUACCUUA, 0.467 ± 0.052. In the case of CAAUUCCUCUCGAUCUACUGGGAUACCUAA, the “pre-steady-state target cleavage rate” value was 0.623 ± 0.043.

With CUUAAGGUCUGGAUCAACUGGGAUACCUAA, the “pre-steady-state target cleavage rate” value was found to be 0.06 ± 0.018.

With CUAUUCCUCUGGAUGAACUGGGUUACCUAA, the “pre-steady-state target cleavage rate” value is 0.306 ± 0.059. On to CUUAAGCUCUGGAUCUACUGGGUCACCUAA, for which the “pre-steady-state target cleavage rate” value was found to be 0.0537 ± 0.014. As for GAAUUCCUGUGGAUCUACUGGCUUACCUAA, the “pre-steady-state target cleavage rate” value worked out at 0.0708 ± 0.021. With GCAUUCCUCUGGAUCUACUGGGUUACCUAA the figure was 0.124 ± 0.033; with CUUAAGGAGACCUUCUACUGGGUUACAUAA, 0.0107 ± 0.0023. Turning to CUUUUGGACUGGAUCUACUGGGUUACCUAA, the “pre-steady-state target cleavage rate” value is 0.216 ± 0.058.

Consider CUUAAGGAGUGGAUCCUACUGGGUUACCUAA, for which the “pre-steady-state target cleavage rate” value worked out at 0.00512 ± 0.0024.

On to CUUAAGGACUGGAUCUAGUGGGUUACGUAA, for which the “pre-steady-state target cleavage rate” value came to 0.149 ± 0.033. With CUUAACCUCUGGAACUACUGGGUAACCUAA the figure was 0.0846 ± 0.0098; with CUAUUCCUCUGAGAUCUACUGGGUUACCUAA, 0.471 ± 0.042. In the case of CAAUUCCUCUGGAACUACUGGGAUACCUAA, the “pre-steady-state target cleavage rate” value was determined as 0.174 ± 0.034. CUUAAGGUCAGGUUCUACUGGGUUACCUAA: the “pre-steady-state target cleavage rate” value was found to be 0.0162 ± 0.0043. On to CUUAUCGUGUGGAUCUACUGGGUUACCUAA, for which the “pre-steady-state target cleavage rate” value stood at 0.318 ± 0.042. Turning to CUUAAGGUGUGGAUCUAGUGGGUUACCUAA, the “pre-steady-state target cleavage rate” value is 0.0159 ± 0.005. As to CAAUUCCACUGGAUCUACUGCGUUACCUAA, the “pre-steady-state target cleavage rate” value stood at 0.468 ± 0.067. For CUUAAGCUCUGGAUCUACUGCGUUACCUUA, the “pre-steady-state target cleavage rate” value worked out at 0.167 ± 0.029. Regarding “CUUUUCCUCUGGAUCUACUGGGUUACCUAG [g2:g27:cont:t1G]”, the “pre-steady-state target cleavage rate” value was 0.4 ± 0.064. CUUAAGCUCUGGAUCUACUGGGUAACCAAA: the “pre-steady-state target cleavage rate” value came to 0.0234 ± 0.0094. As for CAAUUCCUCAGGAUCUACUGGCUUACCUAA, the “pre-steady-state target cleavage rate” value came to 0.104 ± 0.017. Regarding CAAUUGCUCUGGAUCUACUGGGUUUCCUAA, the “pre-steady-state target cleavage rate” value amounted to 0.227 ± 0.04. In the case of CUUAAGGAGACCAUCUACUGGGUUACCUAAA it was 0.00402 ± 0.0032.
